Laboratory results: the RNAGym collection of RNA variant scans (doi:10.1073/pnas.2313332121)
Variants at the background level are over-represented here.

B1: TPR 5TU (parent)
chain: GGAUCUUCUCGAUCUAACAAAAAAGACAAAUCUGCCACAAAGCUUGAGAGCAUCUUCGGAUGCAGAGGCGGCAGCCUUCGGUGGCGCGAUAGCGCCAACGUUCUCAACUAUGACACGCAAAACGCGUGCUCCGUUGAAUGGAGUUUAUCAUG

Variants of: B1
Assay: polymerase ribozyme fitness, log enrichment relative to wild type (log ratio); higher = more active; in vitro selection for triplet polymerase activity
Summary of the method: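 Only genotypes with ≥10 input reads and ≥1 read per output were kept after Illumina sequencing of input and output libraries. These libraries were PCR-built, transcribed mutants of each subunit of a heterodimeric triplet polymerase ribozyme, each put through one triplicate in vitro selection round with frozen incubation at −7 °C, gel excision of extended constructs, streptavidin-bead capture and RT-PCR. Fitness is a logarithmic ratio of genotype enrichment to wild-type enrichment, from inverse-variance-weighted replicate averages, with the logarithm in base 2.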

Variant | polymerase ribozyme fitness (log ratio)
U31G A39C C85U U90C C105A | ≤ -4.2
A29U U45A G46A G133U A142G A150G | ≤ -4.2
U31A G48C C51U C63U U78G U90A C95A C105G A115U C118G A150C | ≤ -4.2
U31G C54A A91C G143C | ≤ -4.2
U31C U77C C93G A110G A115U | ≤ -4.2
A30G A97G G141C U146C | ≤ -4.2
A30G A60G C93A C105G C132A A142U | ≤ -4.2
A30U G59U A60U C75A C85G | ≤ -4.2
A30C A41G U44C G70U U78C C95G A119C | ≤ -4.2
A30U C123G U135C | ≤ -4.2
A30U A37U G59C C118G C123U | ≤ -4.2
U31A G42C U55G C118G A120C | ≤ -4.2
A30U C76A C96G U135G | ≤ -4.2
U31G C43U U55A A89U C95U C99A U104C | ≤ -4.2
U31G U90G C108G A119C | ≤ -4.2
A29U U56A C93U A147U | ≤ -4.2
U31G G46U C57U C96A A137G | ≤ -4.2
U31G A40G G42A C95A A119U G136A A138U | ≤ -4.2
C32A C43U G50A C72U C76G | ≤ -4.2
C32G C38U G58A U82A C96A U104G A110C G133A U139A G152U | ≤ -4.2
A30U U56G G84A C96U A113C C125U U134A A142U | ≤ -4.2
A30U U104A A150U | ≤ -4.2
U31C G34U A52U U56A A60G G84A G92A C95G C105A A110C G133C U148A | ≤ -4.2
U31G G59A G92U | -0.919

Variant | polymerase ribozyme fitness (log ratio)
C32G C75A G84A U127C C132U | ≤ -4.2
U31G C51G G94C U134G A137G | ≤ -4.2
A29U U55G U78A G92C C118U U145A | ≤ -4.2
U31G A39G G58C A91G | ≤ -4.2
C32A C38A U56A C69U C93A A122C G126U | ≤ -4.2
C32G C38U C72A U82A A120G U146G | ≤ -4.2
A30G C54G C63A A73C C95U G128A | ≤ -4.2
A30U G58C U90G C95A | ≤ -4.2
U31C C43U G92C | ≤ -4.2
U31A G80U G112C | ≤ -4.2
A29U U56A C85U | ≤ -4.2
U31A A73U C95G | -3.66
A30C G68A C87U A106U A120G | ≤ -4.2
A30U A49G A52G G58C U78A A110U C123U A142C | ≤ -4.2
A30U U44A C57G G59A C75A G83U G84C U109G | ≤ -4.2
U31A A47C U56A C87U | -0.397
U31A G92C C131U U135C U151C | ≤ -4.2
U31G G46A C93G U151A | ≤ -4.2
U31G C54A C95A A142U | -3.34
A30G A40C A41G U45A U53A G71A G126C G136U | ≤ -4.2
C32A U33A C85G A89C | ≤ -4.2
U31A C32A C87A C93A G124C G143A | ≤ -4.2
A29U U31G C38A A40C A60G C85U A115U | ≤ -4.2
U31G A52C U111G C114U A147G | ≤ -4.2

Variant | polymerase ribozyme fitness (log ratio)
C32G G86U U111G A115U G141A | ≤ -4.2
A30C U53A U78G G84U | ≤ -4.2
A30C G65A G67C G100A A119U | ≤ -4.2
A30G C93A | -3.95
A30C C79A | ≤ -4.2
A30U G94A | -3.7
A30C U33G C38A U53A U56A C85G G112C G117C | ≤ -4.2
U31C C32A C87A | ≤ -4.2
U31G C36U A66G C69G A98G A107G | ≤ -4.2
A30C C38A G50U U56A U109C U127A | ≤ -4.2
C32G C35A | -3.92
A30G G48A G80U G88U U109C | ≤ -4.2
U31A A73C | -4.13
A30U G42C A52C G70C C76U C85G G117A U144G | ≤ -4.2
A30U U31A G42C A47U C57A | ≤ -4.2
A29U U31G C36U C69G G84A | ≤ -4.2
U31G G50A | -1.51
C32G C54A C75U U77A C85U A106G U135C | ≤ -4.2
U31G A40C G42A G50A C54U C72U G94U | ≤ -4.2
A30G G50C C96A G141A | ≤ -4.2
A30U C54U A73G C95A C116U | -4.03
A30U U33C C72U G84U C116U G141U | ≤ -4.2
A30G U45A A106C U135G | -3.85
C32G G92U U127G G152U | -3.98

Variant | polymerase ribozyme fitness (log ratio)
U31G U148C | -2.37
A30C G128U G133C | ≤ -4.2
U31G C95A | 0.165
U31A A49G G50C G84U A98U C125A U130G | ≤ -4.2
A30U A39G A98G C99U C105G | ≤ -4.2
C32G C69A A73G C93U A98U G100U C105U A110C C116U | ≤ -4.2
A30G U53G A73U U82G G112U A120G G128U | ≤ -4.2
A29U U56A C63U U102C U127A G141C U151G | ≤ -4.2
U31A C54U G58A A73G C93G C95A | ≤ -4.2
A30G A39C G50A A73G | ≤ -4.2
U31G C38U A89U C93G | ≤ -4.2
U31C A40C G74A C95U | ≤ -4.2
C32G C76U G88C C96A C103U U127G C129A U139A A142U | ≤ -4.2
A30G A40G C76A G92C | ≤ -4.2
A30G A121U | -3.39
U31C G84A | 0.831
U31A G59A G84A U102G G128C A142C | ≤ -4.2
U31C A52C C57U G59C C99U U145G | -3.63
U31G C123U | 0.732
A30C A73G U90G G124U G141C | ≤ -4.2
A30C A39G G68U U78G C95U A115C G143C | ≤ -4.2
A30U A64U | ≤ -4.2
A30C C57G C63U G65U C96U A97U | ≤ -4.2
A30U G70A G143C | ≤ -4.2

Variant | polymerase ribozyme fitness (log ratio)
A30U C54U C57A A64G G84A A107G C118G G143A | ≤ -4.2
A30U G50C U56A A66C G141A | ≤ -4.2
A30C G141C | ≤ -4.2
A30G G83A U102G A107U | ≤ -4.2
U31C A52G G86U G88A G152U | ≤ -4.2
U31A G81U G83A C85G A91G C103U U104A U109G C118U C123U G124A G143A | ≤ -4.2
A29U U56G G59C A97C | ≤ -4.2
U31C G34C G94U G126U U145A | ≤ -4.2
C32G C57G U78G C87U A106G | ≤ -4.2
A29U U53A C75U U78C C93U C105A U130G | ≤ -4.2
U31G G46C C85U G124U | ≤ -4.2
U31C A37C A106U A107C | ≤ -4.2
A30C C43A C54G G94A A147C | ≤ -4.2
A30U A39U G67A C95A A106C | ≤ -4.2
A30U C51U A60G C95U U102G | ≤ -4.2
U31C C32U G92A U148A | ≤ -4.2
C32A C38U G128C U135A | ≤ -4.2
A30G A64G G136C | -4.07
U31A C69A C95A C116G | -2
C32A C69A C72G G81A A91C G141A | ≤ -4.2
C32A C38G C79G C85U | ≤ -4.2
U31G A37G U61A C85G G141U A150U | ≤ -4.2
A30G A47U A64G G94A | -3.57
A30C C79U G88A A110U | ≤ -4.2

Variant | polymerase ribozyme fitness (log ratio)
A30U G74C U148A | ≤ -4.2
U31A C32G A60G G81A U90G | ≤ -4.2
C32A A91U C99U A120C | ≤ -4.2
A30C G84A A115C C149U | ≤ -4.2
A30C G84U C85G | ≤ -4.2
A30C A41G C76U G83A A89U G124A C131U C132G G143A U144A C149A | ≤ -4.2
A30U U61A U77A A98G C116U A120C | ≤ -4.2
C32G C87U C93G | ≤ -4.2
A30U U61A G70C C96A U111G G140A | ≤ -4.2
U31G U33G G86A U101C C125U G141U | ≤ -4.2
C32G A89U C96A A106C U139A | ≤ -4.2
C32A A91G C99U A119C G141C | ≤ -4.2
A30G C35G G59C A60G G80A G92C G124U C129G | ≤ -4.2
U31A G94A | -0.349
A30U C43U G70U C87G | ≤ -4.2
A30U A89U C95A G117A A138G G140U | ≤ -4.2
A30U U33C G50U U61A C108U C123U A138U A142G U151A | ≤ -4.2
C32G C85G U90G C118A G133U G140C C149G | ≤ -4.2
C32G C85G | ≤ -4.2
A29U U78A U82C C85U G143C | ≤ -4.2
U31A G88A U90A G133A | ≤ -4.2
U31C A47G A49U G94A A119G G136C | -4.04
A30U C75G C87G G124A | ≤ -4.2
A29U U53C U78C C103A C114G G126A | ≤ -4.2

Variant | polymerase ribozyme fitness (log ratio)
U31G G74A G86A G126U | ≤ -4.2
A30G U33A A49C G59C G67U C93G C132U A147U | ≤ -4.2
U31A A66U G86U G100C | ≤ -4.2
A30G C36A A66G G117U G126U | ≤ -4.2
U31C A39C C57A C76G C95G C131U U144G | ≤ -4.2
U31A A73G C85G G143U | ≤ -4.2
C32A U44A G71A C87A A106U A137G | ≤ -4.2
U31C A60C G92A C99A | ≤ -4.2
A30U A64G C75G C79U U102G C125A | ≤ -4.2
A30G A40G A60U C118A | ≤ -4.2
C32A A52C G70C A89G A142C | ≤ -4.2
C32G C38U A49G C69A C75G G88C C103A A106G A138U | ≤ -4.2
U31C C69U G86U C96U | -3.55
U31A A49G U55A G59U C96G | -1.89
C32G G59C G67A C85A G112U | ≤ -4.2
A30C G48U A49C C95G C114G U139A | ≤ -4.2
U31C A41U A115G U144G | -1.6
A30U A52C C96G U101G U148A | ≤ -4.2
A30U A52U G70A | ≤ -4.2
A30U C54U C76G C99G C103A U134A | ≤ -4.2
C32G C69U C85U C149G G152A | ≤ -4.2
U31A C76G C95U | ≤ -4.2
U31G G58U C85U A91G U127G | ≤ -4.2
